In all, about 420,000 compounds went through this assay and about 50,000 (12%) were called active. This list was built around the results that the source calls inconclusive (neither active nor inactive); the mix of calls is not that of the screen. Calls follow the shape of the dose curve; as a rule, active = well fitted inhibition curve with a large enough effect; inconclusive = small, poorly fitted or top-dose-only effect; inactive = flat fitted curve, though single readings scatter. Potencies of inconclusive entries are left out as doubtful fits.
test: qHTS for Inhibitors of human tyrosyl-DNA phosphodiesterase 1 (TDP1): qHTS in cells in presence of CPT; details: chicken DT40 Tdp1-/-;hTDP1 cells + 20 nM CPT, ATP luminescence, 48 h; activity change, negative = growth inhibition: at 46.2 µM (top of the series) unless noted; also: nearly all actives have a fitted effect of over 55% in size
Procedure, shortened: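 Cell growth measured by CellTiter-Glo luminescence after a minimum 48 h, 37 C compound exposure with 20 nM CPT in Tdp1-knockout DT40 cells stably expressing hTDP1, seeded 400/well; qHTS titration format.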
% is scaled to controls: 0 for no effect and ±100 for the full control effect; potency is read from the fitted curve at half-maximal effect; tags tell the direction and shape of the fitted curve.

SMILES | Potency | activity change, negative = growth inhibition
CCC1Nc2ncnc(N3CCCCC3)c2N(Cc2ccccc2)C1=O (stereo not drawn) | inconclusive [inhibitor, single point] | 
CCn1cc(C(=O)O)c(=O)c2cnc(N3CCN(C(=S)Nc4ccc(F)cc4)CC3)nc21 |  | inactive: 2.52%
Cc1ccc(N2C(=O)CSC23C(=O)N(CC(=O)NCCc2ccccc2)c2ccccc23)cc1C (stereo not drawn) | inconclusive [inhibitor, single point] | 
CCCn1cc(S(=O)(=O)c2ccccc2)c(=O)c2cc(F)c(N3CCCCC3)cc21 | inconclusive [inhibitor, single point] | 
Cc1cccc(NC(=S)N(Cc2ccco2)C(C)c2cccs2)c1 (stereo not drawn) | active: 29.1 µM | 
CC(NC(=O)CCCC1=NS(=O)(=O)c2ccccc2N1)c1ccccc1 (stereo not drawn) |  | inactive: -27.6%
NC(=O)CCCn1c(C(=O)c2ccc(Cl)cc2)c2ccc([N+](=O)[O-])cc2[n+]1[O-] | active: 3.66 µM | 
O=[N+]([O-])c1ccccc1S(=O)(=O)NCCC1=CCCCC1 | active: 18.4 µM | 
CCOC(=O)c1c(C)[nH]c(C(=O)N/N=C/c2ccc(OC)c(OC)c2)c1C | active: 1.16 µM | 
CC(C)CN1CCNC(=O)C1CC(=O)NCCc1ccc(C(F)(F)F)cc1 (stereo not drawn) | inconclusive [inhibitor, single point] | 
CCOc1ccccc1NC(=O)c1c(NC(=O)COc2ccccc2)sc2c1CCCCC2 | active: 2.06 µM | 
COCCN(C/C=C/c1ccccc1)C/C=C/c1ccccc1 | inconclusive [inhibitor, single point] | 
O=C(NCCc1ccccn1)C1CC12CCN(C(=O)c1ccc(F)cc1Cl)CC2 (stereo not drawn) |  | inactive: 23.1% [at 9.04 µM]
Cc1cccc(C)c1Nc1cn[nH]c1 |  | inactive: -3.56%
Cc1ccc2c(C)c(C(=O)Nc3cccnc3)oc2c1 | inconclusive [inhibitor, partial curve] | 
CC(=O)C(=Nc1ccccc1Cl)NNc1ccc(Cl)cc1 | inconclusive [inhibitor, single point] | 
CCOC(=O)Cc1nnc(NC(=O)C23CC4CC(CC(C4)C2)C3)s1 |  | inactive: -1.51%
CC(C)CC1Nc2ncnc(N3CCOCC3)c2N(Cc2ccccc2)C1=O (stereo not drawn) | inactive | 
Cc1cccc(OCc2ccc(C(=O)Nc3ccc(F)cc3)cc2)c1 | inconclusive [inhibitor, full curve, poor fit] | 
C[C@@H]1O[C@@H](OC[C@H]2O[C@@H](Oc3c(-c4ccc(OCCO)c(OCCO)c4)oc4cc(OCCO)cc(O)c4c3=O)[C@H](O)[C@@H](O)[C@@H]2O)[C@H](O)[C@H](O)[C@H]1O |  | inactive: -24.7%
CSc1ccc(Cl)c(C(=O)N2CCOc3ccccc32)c1 | active: 18.4 µM | 
Cc1ccc(C)c(-n2nnnc2Sc2nnnn2-c2ccccc2)c1 | inconclusive [inhibitor, single point] | 
Cc1cc(C)n(C(=O)/C(C#N)=N/Nc2cc(Cl)cc(Cl)c2)n1 | active: 3.26 µM | 
Oc1ccccc1/C=N/n1c2ccccc2c2ccccc21 | inconclusive [inhibitor, single point] | 
CCN(CC)c1ccc(NC(=O)C2=CCN(S(=O)(=O)c3ccc(F)cc3)CC2)c(C)c1 | active: 18.4 µM | 

SMILES | Potency | activity change, negative = growth inhibition
CC(=O)c1ccc(N2CCN(C(=O)CNC(=O)c3ccc(Br)o3)CC2)cc1 | inconclusive [inhibitor, single point] | 
Cc1ccc2c(c1)-c1c(cnn1CC(=O)N(CCC#N)c1ccccc1)CO2 | inconclusive [inhibitor, single point] | 
CCC(C)CNC(=O)c1cccc(OC2CCN(CC(C)(C)C)CC2)c1 (stereo not drawn) | inconclusive [inhibitor, single point] | 
CCCc1cc(=O)n2nc(N3CCC(C(=O)N4CCN(c5ccc(OC)cc5)CC4)CC3)sc2n1 | active: 2.59 µM | 
CCOC(=O)N1CCN(S(=O)(=O)N2CCCC(C(=O)NCc3ccccc3OCC)C2)CC1 (stereo not drawn) | inconclusive [inhibitor, single point] | 
Cc1ccc(C)c(N2CCN(C(=O)CCc3nc(-c4cccc(F)c4)no3)CC2)c1 | inconclusive [inhibitor, single point] | 
COc1ccc(-c2cc(NC=O)c3ncc(-c4cc(OC)c(OC)c(OC)c4)n3c2)cc1 | active: 0.146 µM | 
O=C(CN1CCN(C(=O)CCC(=O)N2CCC(c3ccccc3)=N2)CC1)Nc1cccc(F)c1 | active: 16.4 µM | 
CCNC(=S)N/N=C/c1cc(C)n(-c2ccc(Cl)cc2)c1C | active: 18.4 µM | 
Cc1nn(CCCC(=O)Nc2cc(Oc3ccccc3)cc([N+](=O)[O-])c2)c(C)c1[N+](=O)[O-] | inconclusive [inhibitor, single point] | 
O=C1Nc2ccccc2Oc2cc([N+](=O)[O-])ccc21 | inconclusive [inhibitor, partial curve, poor fit] | 
O=C(O)COc1ccccc1C(Nc1ccccn1)c1cc(Cl)c2cccnc2c1O (stereo not drawn) |  | inactive: -24.7%
CC1CCCCC1NC(=O)/C(C#N)=C/c1ccccc1F (stereo not drawn) |  | inactive: -104%
CCN(CC)S(=O)(=O)c1ccc(NC(=O)c2ccc(OCC3CCCO3)cc2)cc1 (stereo not drawn) | active: 23.1 µM | 
O=C(Nc1ccc2c(c1)OCCO2)c1cc(-c2ccccn2)nc2ccc(Br)cc12 | inconclusive [inhibitor, partial curve] | 
COc1ccc(C(c2nnnn2-c2c(C)cccc2C)N2CCN(C/C=C/c3ccccc3)CC2)cc1 (stereo not drawn) | inconclusive [inhibitor, single point] | 
CCC(C)n1c(=N)c(C(=O)NCc2ccccc2)cc2c(=O)n3cc(C)ccc3nc21 (stereo not drawn) | inconclusive [inhibitor, single point] | 
COc1ccc(F)cc1-c1cc(C(=O)NCc2cccc(Cl)c2)[nH]n1 | inconclusive [inhibitor, single point] | 
C/C(N)=C(/C#N)C(=O)CSc1nnc(SCc2ccc(Cl)cc2)s1 | active: 13 µM | 
c1ccc(-c2nccc(-c3ccc(-n4cnc5ccccc54)cc3)n2)nc1 | inconclusive [inhibitor, single point] | 
CS(=O)(=O)c1ccc(S(=O)(=O)N2CCC(CO)(CCCc3ccccc3)CC2)cc1 | inconclusive [inhibitor, single point] | 
COc1cc(C2C=C(Nc3ccccc3)C(=O)N2c2ccccc2)ccc1O (stereo not drawn) | inconclusive [inhibitor, single point] | 
Clc1cccc(-c2nnc(-c3ccccc3)o2)c1 | active: 16.4 µM | 
Cc1nc2ccccc2nc(C)c1=NOCc1ccc(Cl)cc1Cl | inconclusive [inhibitor, partial curve, poor fit] | 
CCOc1cc(N2CCOCC2)c(OCC)cc1NC(=O)C1CC(=O)N(c2ccc(C)cc2)C1 (stereo not drawn) |  | inactive: -27.8%

SMILES | Potency | activity change, negative = growth inhibition
Cc1ccc(C)c(S(=O)(=O)N2CCN(C(=O)[C@@H]3CCCN3C(=O)c3cccs3)CC2)c1 | inconclusive [inhibitor, partial curve, poor fit] | 
CC(c1ccccc1)n1c(-c2cccs2)nc2c(c(=O)c3ccccc3n2C)c1=O (stereo not drawn) |  | inactive: -23.6%
CCc1cc2c(N3CCN(c4ccccc4)CC3)ncnc2s1 | active: 13 µM | 
Fc1ccc(Nc2nc(N3CCOCC3)c3ccccc3n2)cc1 | inconclusive [inhibitor, single point] | 
COc1ccc(C(=O)CC(=O)C(=O)Nc2ccc(C)c(C)c2)cc1 | active: 20.6 µM | 
Cc1ccccc1N1C(=O)C(Oc2ccc(Cl)cc2)C1CNCC1CCCO1 (stereo not drawn) | inconclusive [inhibitor, single point] | 
CCOC(=O)C1(C)CCCN1C(=O)c1cccc2ccccc12 (stereo not drawn) | active: 11.6 µM | 
CN(CC(=O)Nc1ccc(F)c(F)c1F)C(=O)c1nn(Cc2ccccc2)c(=O)c2ccccc12 |  | inactive: -0.132%
COc1cccc(NC(=O)c2cccc(NC(=O)c3ccco3)c2)c1 |  | inactive: -26.2%
COc1ccc2c(c1)c1c(n2C(C)=O)C(OC(C)=O)=NCC1 | inconclusive [inhibitor, partial curve, poor fit] | 
O=C(NCC1CCCO1)c1onc(CSc2ccc(F)c(F)c2)c1C(=O)O (stereo not drawn) |  | inactive: 2.07%
Cc1ccc(C(=O)N2CCC3(CC2)Oc2ccc(F)cc2C(=O)C32CC(c3cccnc3)=NO2)s1 (stereo not drawn) | inconclusive [inhibitor, single point] | 
Cc1ccccc1C(=O)Nc1ccc(S(=O)(=O)N2CCCC2)cc1 |  | inactive: -21.7%
O=[N+]([O-])c1ccc2nc(N3CCCC3)sc2c1 | inconclusive [inhibitor, partial curve] | 
COC(=O)c1ccc(COc2c(F)c(F)cc(F)c2F)o1 |  | inactive: -2.01%
COc1ccc(CCNC(=O)c2sc3nc4n(c(=O)c3c2C)CCCC4)cc1OC | inconclusive [inhibitor, single point] | 
CC(=O)c1ccc(NC(=O)C[n+]2ccc(N(C)C)cc2)cc1 |  | inactive: -13.4%
O=C(O)c1ccc(N2Cc3ccccc3C2)cc1O |  | inactive: 5.89%
CN(C)c1ccc(/C=N\NC(=S)SCN2C(=O)C3CCC(C)(C2=O)C3(C)C)cc1 (stereo not drawn) |  | inactive: -3.33%
CC(C)OC(=O)c1cccc(-c2ccc(C=O)o2)c1 |  | inactive: 6.16%
CCCCCCOc1ccc(C(=O)NCCCn2ccnc2)cc1 | inconclusive [inhibitor, single point] | 
COC(=O)[C@@H](NC(=O)c1ccccc1OC1CCN(S(C)(=O)=O)CC1)C(C)C |  | inactive: -6.12%
CCNC(=O)CN(CCc1ccccc1)S(=O)(=O)c1ccc(OC)cc1 | inconclusive [inhibitor, single point] | 

From PubChem BioAssay AID686979 (National Center for Advancing Translational Sciences (NCATS), 2013)
